Positions count from the first letter of the chain named. The list shows a part of the results.
T1: RBFOX1 RRM RbFoxmut (Fox-RRM*) (Homo sapiens, UniProt Q9NWB1 109-208, R118D;E147R;N151S;E152T)
T1 sequence: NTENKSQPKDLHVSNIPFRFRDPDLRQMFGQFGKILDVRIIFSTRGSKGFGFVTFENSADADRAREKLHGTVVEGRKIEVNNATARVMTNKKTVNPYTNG

B1: UGGUCCA (DNA:RNA)
RNA: GGGAGACCGGAAUUCAGAUUGUCCUGGUCCAUUAAAUCCCGUCGUAGCCACCA
DNA 1: CAATCTGAATTCCGGTCTCCC
DNA 2: TGGTGGCTACGACGGGATT
B2: AUGGGCU (DNA:RNA)
RNA: B1 RNA with U25A, G26U, U28G, C29G, A31U
DNA 1: CAATCTGAATTCCGGTCTCCC
DNA 2: TGGTGGCTACGACGGGATT
B3: CAAUAUU (DNA:RNA)
RNA: B1 RNA with U25C, G26A, G27A, C29A, C30U, A31U
DNA 1: CAATCTGAATTCCGGTCTCCC
DNA 2: TGGTGGCTACGACGGGATT
B4: CGGCGCG (DNA:RNA)
RNA: B1 RNA with U25C, U28C, C29G, A31G
DNA 1: CAATCTGAATTCCGGTCTCCC
DNA 2: TGGTGGCTACGACGGGATT
B5: GAUGUAG (DNA:RNA)
RNA: GGGAGACCGGAAUUCAGAUUGUCCGAUGUAGUUAAAUCCCGUCGUAGCCACCA
DNA 1: CAATCTGAATTCCGGTCTCCC
DNA 2: TGGTGGCTACGACGGGATT
B6: UGGGACU (DNA:RNA)
RNA: B1 RNA with U28G, C29A, A31U
DNA 1: CAATCTGAATTCCGGTCTCCC
DNA 2: TGGTGGCTACGACGGGATT
B7: UAUAAAC (DNA:RNA)
RNA: B5 RNA with G25U, G28A, U29A, G31C
DNA 1: CAATCTGAATTCCGGTCTCCC
DNA 2: TGGTGGCTACGACGGGATT
B8: AUCGCUA (DNA:RNA)
RNA: B1 RNA with U25A, G26U, G27C, U28G, C30U
DNA 1: CAATCTGAATTCCGGTCTCCC
DNA 2: TGGTGGCTACGACGGGATT
B9: CCUGUCC (DNA:RNA)
RNA: B5 RNA with G25C, A26C, A30C, G31C
DNA 1: CAATCTGAATTCCGGTCTCCC
DNA 2: TGGTGGCTACGACGGGATT

Target: T1, RBFOX1 RRM RbFoxmut (Fox-RRM*)
Assay: EMSA; HiTS-Eq, 1 nM pool, 10 min; buffer printed only for the single-RNA assays: 10 mM Tris pH 7.5, 150 mM NaCl, 3.4 mM EDTA, 0.001% NP-40, 30 C
Details: tags: His6 N-terminal (pET28a); label: 5' 32P
Method in brief: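 Relative association constants, normalised to the cognate motif, were derived by comparing read counts of each RNA species with those of the control reaction. The RNA sequenced was the free fraction, separated by 8% native PAGE after a 10 min equilibration in 50 µL of 1 nM 5′-radiolabelled RNA (7 randomized nucleotides) with increasing concentrations of purified wild-type or mutant RbFox RRM.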

Binder	binding signal
B1	0.122 KA relative to UGCAUGU
B2	0.116 KA relative to UGCAUGU
B3	0.088 KA relative to UGCAUGU
B4	0.155 KA relative to UGCAUGU
B5	0.115 KA relative to UGCAUGU
B6	0.078 KA relative to UGCAUGU
B7	0.0544 KA relative to UGCAUGU
B8	0.113 KA relative to UGCAUGU
B9	0.074 KA relative to UGCAUGU
